# According to the supplement of paper PMC12217912:
# Some of the results follow. Sequences were assembled here from the parent chain. Values near 0.05 are background.
# B1: TEV protease; numbered along this chain (parent)
# chain: MGESLFKGPRDYNPISSSICHLTNESDGHTTSLYGIGFGPFIITNKHLFRRNNGTLVVQSLHGVFKVKDTTTLQQHLVDGRDMIIIRMPKDFPPFPQKLKFREPQREERICLVTTNFQTKSMSSMVSDTSCTFPSGDGIFWKHWIQTKDGQCGSPLVSTRDGFIVGIHSASNFTNTNNYFTSVPKNFMELLTNQEAQQWVSGWRLNADSVLWGGHKVFMVKPEEPFQPVKEATQL
# Variants of: B1
# Assay: raw area under fraction-flipped curve 0-4 h after induction (AUC4h, not background-subtracted), DNA-recorder readout of cleavage of the substrate (dimensionless); higher = more cleavage of the substrate by the protease variant
# Conditions: temperature: 34 °C; time window: 0-4 h after rhamnose induction
# Procedure: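 In vivo DNA recorder in E. coli TOP10(DE3) ΔrhaA at 34 °C. Each TEVp single-site mutant (parent TEVp 0) is paired with a single-site variant of the 7-mer TEVs (canonical ENLYFQ|S). The substrate sits between flexible linkers in a Bxb1-sfGFP-TEVs-SsrA fusion, so cleavage stabilises Bxb1 and speeds flipping of a recombination array, read by NGS. The value is the raw area under the fraction-flipped curve over 0-4 h after rhamnose induction (AUC4h), with ≥20 reads per time point. It is not background-subtracted; inactive controls average about 0.047.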
# 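Also: Bxb1 expression induced with 0.2% (w/v) L-rhamnose at OD600 near 0.5, cultures sampled hourly, flipped fraction per protease–substrate barcode pair counted by paired-end Illumina sequencing.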
Variant,area with substrate ENAYFQS,area with substrate ENCYFQS,area with substrate ENDYFQS,area with substrate ENEYFQS,area with substrate ENFYFQS,area with substrate ENGYFQS,area with substrate ENIYFQS,area with substrate ENKYFQS,area with substrate ENNYFQS,area with substrate ENPYFQS,area with substrate ENQYFQS,area with substrate ENRYFQS,area with substrate ENSYFQS,area with substrate ENTYFQS,area with substrate ENVYFQS,area with substrate ENMYFQS,area with substrate ENWYFQS,area with substrate ENHYFQS,area with substrate ENYYFQS
MGESLFKGPRDYNPISSSICHLTNESDGHTTSLYGIGFGPFIITNKHLFRRTNGTLVVQSLHGVFKVKDTTTLQQHLVDGRDMIIIRMPKDFPPFPQKLKFREPQREERICLVTTNFQTKSMSSMVSDTSCTFPSGDGIFWKHWIQTKDGQCGSPLVSTRDGFIVGIHSASNFTNTNNYFTSVPKNFMELLTNQEAQQWVSGWRLNADSVLWGGHKVFMVKPEEPFQPVKEATQL [N52T],0.0313,0.058,0.0936,0.0345,0.067,0.0767,0.0954,0.0611,0.0556,0.0652,0.0534,0.0592,0.0605,0.0572,0.0624,,,,
MGESLFKGPRDYNPISSSICHLTNESDGHTTSLYGIGFGPFIITNKHLFRRYNGTLVVQSLHGVFKVKDTTTLQQHLVDGRDMIIIRMPKDFPPFPQKLKFREPQREERICLVTTNFQTKSMSSMVSDTSCTFPSGDGIFWKHWIQTKDGQCGSPLVSTRDGFIVGIHSASNFTNTNNYFTSVPKNFMELLTNQEAQQWVSGWRLNADSVLWGGHKVFMVKPEEPFQPVKEATQL [N52Y],0.0554,,0.0692,0.0579,0.0665,0.0619,0.075,0.0624,0.0613,0.0562,0.0622,0.0577,0.0806,0.0542,0.0629,0.0818,0.0106,,
MGESLFKGPRDYNPISSSICHLTNESDGHTTSLYGIGFGPFIITNKHLFRRNAGTLVVQSLHGVFKVKDTTTLQQHLVDGRDMIIIRMPKDFPPFPQKLKFREPQREERICLVTTNFQTKSMSSMVSDTSCTFPSGDGIFWKHWIQTKDGQCGSPLVSTRDGFIVGIHSASNFTNTNNYFTSVPKNFMELLTNQEAQQWVSGWRLNADSVLWGGHKVFMVKPEEPFQPVKEATQL [N53A],0.0611,0.0389,0.0618,0.0515,,0.0528,,,0.0587,,0.0563,0.0625,0.0743,0.0609,0.072,0.0724,0.0693,0.0694,0.0536
MGESLFKGPRDYNPISSSICHLTNESDGHTTSLYGIGFGPFIITNKHLFRRNGGTLVVQSLHGVFKVKDTTTLQQHLVDGRDMIIIRMPKDFPPFPQKLKFREPQREERICLVTTNFQTKSMSSMVSDTSCTFPSGDGIFWKHWIQTKDGQCGSPLVSTRDGFIVGIHSASNFTNTNNYFTSVPKNFMELLTNQEAQQWVSGWRLNADSVLWGGHKVFMVKPEEPFQPVKEATQL [N53G],0.076,0.0677,0.0583,0.0669,0.0655,0.0648,0.124,0.0846,0.0602,,0.0592,0.0585,0.0531,0.0578,,,0.0801,,0.0624
MGESLFKGPRDYNPISSSICHLTNESDGHTTSLYGIGFGPFIITNKHLFRRNNGELVVQSLHGVFKVKDTTTLQQHLVDGRDMIIIRMPKDFPPFPQKLKFREPQREERICLVTTNFQTKSMSSMVSDTSCTFPSGDGIFWKHWIQTKDGQCGSPLVSTRDGFIVGIHSASNFTNTNNYFTSVPKNFMELLTNQEAQQWVSGWRLNADSVLWGGHKVFMVKPEEPFQPVKEATQL [T55E],0.0663,0.0475,0.0626,0.0528,0.0621,,,0.0625,0.0525,0.0508,0.0566,0.0638,0.0679,0.0537,0.0768,0.0752,0.0514,0.0112,
MGESLFKGPRDYNPISSSICHLTNESDGHTTSLYGIGFGPFIITNKHLFRRNNGILVVQSLHGVFKVKDTTTLQQHLVDGRDMIIIRMPKDFPPFPQKLKFREPQREERICLVTTNFQTKSMSSMVSDTSCTFPSGDGIFWKHWIQTKDGQCGSPLVSTRDGFIVGIHSASNFTNTNNYFTSVPKNFMELLTNQEAQQWVSGWRLNADSVLWGGHKVFMVKPEEPFQPVKEATQL [T55I],0.0608,,0.0656,0.0514,,0.0708,0.114,0.0588,,0.0353,0.0593,0.0632,0.0657,,0.0809,0.0693,,0.0552,
MGESLFKGPRDYNPISSSICHLTNESDGHTTSLYGIGFGPFIITNKHLFRRNNGTLKVQSLHGVFKVKDTTTLQQHLVDGRDMIIIRMPKDFPPFPQKLKFREPQREERICLVTTNFQTKSMSSMVSDTSCTFPSGDGIFWKHWIQTKDGQCGSPLVSTRDGFIVGIHSASNFTNTNNYFTSVPKNFMELLTNQEAQQWVSGWRLNADSVLWGGHKVFMVKPEEPFQPVKEATQL [V57K],0.0628,,0.0673,0.0593,,0.0629,,0.0564,0.0541,,0.0526,0.0748,0.101,,0.125,,,0.0516,
MGESLFKGPRDYNPISSSICHLTNESDGHTTSLYGIGFGPFIITNKHLFRRNNGTLMVQSLHGVFKVKDTTTLQQHLVDGRDMIIIRMPKDFPPFPQKLKFREPQREERICLVTTNFQTKSMSSMVSDTSCTFPSGDGIFWKHWIQTKDGQCGSPLVSTRDGFIVGIHSASNFTNTNNYFTSVPKNFMELLTNQEAQQWVSGWRLNADSVLWGGHKVFMVKPEEPFQPVKEATQL [V57M],0.0656,0.0659,0.0583,0.0656,,0.061,0.0936,0.0701,,,0.0607,0.0574,0.0526,0.0646,0.0743,0.0697,,,0.0603
MGESLFKGPRDYNPISSSICHLTNESDGHTTSLYGIGFGPFIITNKHLFRRNNGTLTVQSLHGVFKVKDTTTLQQHLVDGRDMIIIRMPKDFPPFPQKLKFREPQREERICLVTTNFQTKSMSSMVSDTSCTFPSGDGIFWKHWIQTKDGQCGSPLVSTRDGFIVGIHSASNFTNTNNYFTSVPKNFMELLTNQEAQQWVSGWRLNADSVLWGGHKVFMVKPEEPFQPVKEATQL [V57T],0.0625,,0.0622,0.0552,,0.0857,,0.0777,0.0515,0.0488,0.0707,0.06,0.0537,,0.0741,,,,0.0599
MGESLFKGPRDYNPISSSICHLTNESDGHTTSLYGIGFGPFIITNKHLFRRNNGTLVVQFLHGVFKVKDTTTLQQHLVDGRDMIIIRMPKDFPPFPQKLKFREPQREERICLVTTNFQTKSMSSMVSDTSCTFPSGDGIFWKHWIQTKDGQCGSPLVSTRDGFIVGIHSASNFTNTNNYFTSVPKNFMELLTNQEAQQWVSGWRLNADSVLWGGHKVFMVKPEEPFQPVKEATQL [S60F],0.0636,0.0503,0.035,0.0537,0.0591,0.0584,,,,,0,,0.0613,0.0714,0.0925,0.0728,,,0.0597
MGESLFKGPRDYNPISSSICHLTNESDGHTTSLYGIGFGPFIITNKHLFRRNNGTLVVQVLHGVFKVKDTTTLQQHLVDGRDMIIIRMPKDFPPFPQKLKFREPQREERICLVTTNFQTKSMSSMVSDTSCTFPSGDGIFWKHWIQTKDGQCGSPLVSTRDGFIVGIHSASNFTNTNNYFTSVPKNFMELLTNQEAQQWVSGWRLNADSVLWGGHKVFMVKPEEPFQPVKEATQL [S60V],0.0547,0.062,0.0509,0.0444,0.0549,0.0635,0.105,,0.0526,,0.0492,0.048,0.0597,0.0646,0.0587,0.0951,0.0441,0.0515,0.0656
MGESLFKGPRDYNPISSSICHLTNESDGHTTSLYGIGFGPFIITNKHLFRRNNGTLVVQSAHGVFKVKDTTTLQQHLVDGRDMIIIRMPKDFPPFPQKLKFREPQREERICLVTTNFQTKSMSSMVSDTSCTFPSGDGIFWKHWIQTKDGQCGSPLVSTRDGFIVGIHSASNFTNTNNYFTSVPKNFMELLTNQEAQQWVSGWRLNADSVLWGGHKVFMVKPEEPFQPVKEATQL [L61A],0.0471,0.0626,0.0601,0.0658,,0.057,,0.0577,0.0618,,0.0613,0.0637,0.0533,0.0558,,0.0966,,0.0476,
MGESLFKGPRDYNPISSSICHLTNESDGHTTSLYGIGFGPFIITNKHLFRRNNGTLVVQSNHGVFKVKDTTTLQQHLVDGRDMIIIRMPKDFPPFPQKLKFREPQREERICLVTTNFQTKSMSSMVSDTSCTFPSGDGIFWKHWIQTKDGQCGSPLVSTRDGFIVGIHSASNFTNTNNYFTSVPKNFMELLTNQEAQQWVSGWRLNADSVLWGGHKVFMVKPEEPFQPVKEATQL [L61N],0.0633,,,0.0711,0.0735,,0.112,0.0672,,0.0565,0.0629,0.0628,,0.094,,,,,0.0557
MGESLFKGPRDYNPISSSICHLTNESDGHTTSLYGIGFGPFIITNKHLFRRNNGTLVVQSLNGVFKVKDTTTLQQHLVDGRDMIIIRMPKDFPPFPQKLKFREPQREERICLVTTNFQTKSMSSMVSDTSCTFPSGDGIFWKHWIQTKDGQCGSPLVSTRDGFIVGIHSASNFTNTNNYFTSVPKNFMELLTNQEAQQWVSGWRLNADSVLWGGHKVFMVKPEEPFQPVKEATQL [H62N],0.0682,0.0684,,0.0567,0.0643,,0.0884,0.0436,0.0649,,0.0635,,0.0743,,0.0877,,,,0.0507
MGESLFKGPRDYNPISSSICHLTNESDGHTTSLYGIGFGPFIITNKHLFRRNNGTLVVQSLHIVFKVKDTTTLQQHLVDGRDMIIIRMPKDFPPFPQKLKFREPQREERICLVTTNFQTKSMSSMVSDTSCTFPSGDGIFWKHWIQTKDGQCGSPLVSTRDGFIVGIHSASNFTNTNNYFTSVPKNFMELLTNQEAQQWVSGWRLNADSVLWGGHKVFMVKPEEPFQPVKEATQL [G63I],0.0651,0.0564,0.0645,0.0617,,0.0538,,,0.0559,0.0576,0.0621,0.0916,0.072,0.0689,0.0652,0.0649,0.0517,,
MGESLFKGPRDYNPISSSICHLTNESDGHTTSLYGIGFGPFIITNKHLFRRNNGTLVVQSLHMVFKVKDTTTLQQHLVDGRDMIIIRMPKDFPPFPQKLKFREPQREERICLVTTNFQTKSMSSMVSDTSCTFPSGDGIFWKHWIQTKDGQCGSPLVSTRDGFIVGIHSASNFTNTNNYFTSVPKNFMELLTNQEAQQWVSGWRLNADSVLWGGHKVFMVKPEEPFQPVKEATQL [G63M],0.0645,0.0621,0.0674,0.0574,0.06,0.0716,0.0889,0.0631,0.057,,0.0608,0.0579,0.0608,,0.0774,0.0716,,0.0395,
MGESLFKGPRDYNPISSSICHLTNESDGHTTSLYGIGFGPFIITNKHLFRRNNGTLVVQSLHNVFKVKDTTTLQQHLVDGRDMIIIRMPKDFPPFPQKLKFREPQREERICLVTTNFQTKSMSSMVSDTSCTFPSGDGIFWKHWIQTKDGQCGSPLVSTRDGFIVGIHSASNFTNTNNYFTSVPKNFMELLTNQEAQQWVSGWRLNADSVLWGGHKVFMVKPEEPFQPVKEATQL [G63N],0.0678,,0.0494,0.0652,0.0532,0.0475,0.0719,,0.0382,,0.0445,0.0501,0.0517,0.0549,,0.0773,,,
MGESLFKGPRDYNPISSSICHLTNESDGHTTSLYGIGFGPFIITNKHLFRRNNGTLVVQSLHGNFKVKDTTTLQQHLVDGRDMIIIRMPKDFPPFPQKLKFREPQREERICLVTTNFQTKSMSSMVSDTSCTFPSGDGIFWKHWIQTKDGQCGSPLVSTRDGFIVGIHSASNFTNTNNYFTSVPKNFMELLTNQEAQQWVSGWRLNADSVLWGGHKVFMVKPEEPFQPVKEATQL [V64N],0.0596,0.0648,0.0481,0.0582,0.0572,0.0626,,0.0669,,0.0647,0.0449,0.0616,0.0665,0.0572,0.0538,,0.0734,,0.0476
